86 compounds from PubChem BioAssay (NCI) can be followed below.

Several values for one entry are separate records, joined by “and”; a condition that tells them apart may be missing. Equal entries are not always repeated.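 Grown in 96-well plates, cells were treated for 48 hours with each compound at five concentrations. Insufficient inhibition: endpoint recorded as highest concentration tested. Here, GI50 denotes the concentration required for 50% inhibition of growth. At the TGI there is no net growth.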 Square brackets hold non-standard residues; d marks the D form. Peptide text beside a SMILES is read from it. * marks the point of attachment. ξ: configuration not given here. ξD = NC(CC(=O)O)C(=O)O; Boc = CC(C)(C)OC(=O)*; Aib = CC(C)(N)C(=O)O; OtBu = CC(C)(C)O* Some results are limits rather than exact numbers.

This test relates to NCI-H322M lung. Briefly: NCI-60 cell line screen, 48 h.

Regarding `COc1ccc(/C=C/C(=O)c2ccc(Cl)cc2Cl)cc1`, the GI50 was 19000 nM and the TGI worked out at 37.8 µM. With `CCOC(=O)CCC(NC(=O)c1ccc(Sc2nc3cc(N)cc(N)c3nc2-c2ccccc2)cc1)C(=O)OCC` (configuration not stated), the GI50 was 5140 nM and the TGI was more than 100 µM. In the case of `CCc1n[nH]c(=O)n1N1C(=O)C2CCCCC2C1=O` (configuration not stated), the TGI is more than 100 µM. Compound `CC(C)C[C@@H](NC(=O)[C@@H](Cc1cccc2ccccc12)NC(=O)N1CCOCC1)B(O)O` displayed a TGI of more than 100 µM. For the compound `COc1ccc2c(c1)c1c(C)c3cnccc3c(C)c1n2CCCN`, the GI50 is 39 nM and 23.2 nM; the TGI is 0.137 µM and 0.255 µM. `COc1cc(/C=C2\CCC/C(=C\c3ccc(OC(=O)CCCCC4CCSS4)c(OC)c3)C2=O)ccc1OC(=O)CCCCC1CCSS1` (configuration not stated) displayed a TGI of more than 100 µM.

As to `C/C(=N\[N+](C)(C)C)c1ccc(C)c(C)c1`, the TGI is more than 100 µM. Regarding `O=C(Nc1ccc(F)cc1F)c1cc(F)ccc1O`, the GI50 is 2830 nM and the TGI is more than 100 µM. `CC(CO)CCNc1ncnc2c1ncn2CCC#N` (configuration not stated) returned a TGI of more than 100 µM. `COC1(OC)CC2CCCCC2=C(C)N1S(=O)(=O)c1ccccc1` (configuration not stated) yielded a TGI of more than 100 µM.

The compound `Nc1nc(N)c2ncn(-c3ccc(Br)cc3)c2n1` yielded a TGI of more than 100 µM.

Regarding `CN(C)CCCN1N=Nc2cccc3cccc1c23`, the TGI is more than 100 µM. With `Nc1nc(/C=C\c2ccc([N+](=O)[O-])s2)nc(N2CCOCC2)n1`, the GI50 was 14900 nM and the TGI was found to be 37.8 µM.

`COC(=O)C(C)(C)NC(=O)C(C)(C)NC(=O)C(CC(=O)OC(C)(C)C)NC(=O)OC(C)(C)C` (configuration not stated) (Boc-[ξD](OtBu)-[Aib]-[Aib]-OMe): the TGI was more than 100 µM. In turn, `COC(=O)C(=O)C(C(=O)C(=O)Nc1ccc([N+](=O)[O-])cc1[N+](=O)[O-])c1nc2ccc(Cl)cc2[nH]c1=O` (configuration not stated) came in with a TGI of more than 100 µM. The compound `Cc1nc2ccc(Cl)cc2c(Cl)c1CCCl` returned a TGI of more than 100 µM. For the compound `COC(=O)/C=C/CC(=O)NS(C)(=O)=O`, the TGI was more than 10 µM.

`CC1NOC(=O)C1N=Nc1ccccc1Br` (configuration not stated) showed a TGI of more than 100 µM. `CCOC(=O)C(C)c1nc2cc3cccnc3c(Cl)c2[nH]c1=O` (configuration not stated) registered a TGI of more than 100 µM. Consider `N#CC1C(=O)C(=O)N(c2ccccc2)C1=O` (configuration not stated), for which the TGI was more than 100 µM. `C/C=C/C1=CN2C(=O)c3cc(OC4OC(C)C(NC)C(C)(O)C4O)c(C)cc3N=C[C@@H]2C1` (some centres not stated): the GI50 is 166 nM. `COc1ccc(C2Oc3ccc(Cl)cc3C=C2[N+](=O)[O-])cc1OC` (configuration not stated) returned a TGI of 2.86 µM. `Cc1ccc(NCCN(C)C)c2c(=O)c3cc(O)ccc3oc12` gave a TGI of 27 µM. `Nc1ncnc2c1ccn2COC(CO)CO` gave a TGI of more than 100 µM. In turn, `CCOC(=O)CCSS(=O)(=O)c1ccccc1` had a TGI of more than 100 µM. As for `O=C(NC1CCCCC1)OCc1c(COC(=O)NC2CCCCC2)c(-c2ccc(Cl)c(Cl)c2)n2c1CCC2`, the GI50 was 4990 nM and the TGI amounted to 51.2 µM. For the compound `CCN(Cc1ccccn1)c1ccc(CO)c(Cl)c1`, the GI50 is 28300 nM and the TGI is more than 100 µM. As for `NCCNC1=CC(=O)c2nc3ccccc3c3ccnc1c23`, the GI50 was 4300 nM and the TGI stood at 30.8 µM. In turn, `C=CCNC(=S)/N=C\C(C(=O)OCC)=C(/O)C(=O)OCC` gave a TGI of more than 100 µM. In turn, `Cc1nc2c(o1)C(=Nc1ccccc1)c1ccccc1C2=Nc1ccccc1` gave a TGI of more than 100 µM. In turn, `C[C@@H](CO)C1=C(O)c2ccc3c(c2C(=O)C1=O)CCCC3(C)C` displayed a TGI of more than 100 µM.

`C=CC[C@@]1(OC(C)=O)C(=O)C(=O)OC1C1COC(C)(C)O1` (some centres not stated) showed a TGI of more than 100 µM. `CC1=C(Cc2ccccc2)C(Cc2ccccc2)=C(C)S1=O` registered a TGI of 77.8 µM.

For `S=c1oc(CCCCCCCCc2nn(CNc3ccccc3)c(=S)o2)nn1CNc1ccccc1`, the TGI is more than 100 µM. As for `O=C1OC(c2ccccc2)=N/C1=C\c1ccc(Br)cc1`, the TGI is more than 100 µM. On to `O=C1NC(=O)C(c2c[nH]c3cc(Br)ccc23)=C1c1cnc[nH]1`, for which the TGI is more than 100 µM. With `OCCCCOC(c1ccccc1)(c1ccccc1)c1ccccc1`, the TGI is more than 100 µM.

In turn, `O=C(c1cccc(F)c1F)N1CCc2c([nH]c3ccccc23)C1c1ccc2c(c1)OCO2` (configuration not stated) returned a TGI of 66 µM. Still for that read-out and setting: the result for `C[C@@H](c1ccccc1)C(CC#N)[C@H]1CCC[C@]1(O)C#Cc1ccc2c(c1)OCO2` (some centres not stated) reads 32.3 µM; that for `N#CCC(=O)N1CCCOCCC1`, more than 100 µM.

For `COc1ccc2c(c1)O/C(=C\c1ncc([N+](=O)[O-])n1C)C2=O`, the GI50 was 2540 nM and the TGI was found to be 8.27 µM. For the compound `N#Cc1cnc(=O)n(C2CC(O)C(CO)O2)c1` (configuration not stated), the GI50 is more than 100000 nM and the TGI was more than 100 µM. As for `CC(C)N(Cc1c(F)cccc1F)c1ccc(CO)c(Cl)c1`, the GI50 was 2430 nM and the TGI was 12.6 µM. Consider `Oc1ccc(C=NCC2CCCN3CCCCC23)cc1` (configuration not stated), for which the TGI is more than 63 µM. Compound `O=C1CCCC/C1=C(\Br)I` yielded a TGI of 32.8 µM. With `CC(C)OP(=O)(OC(C)C)c1ncc(-c2ccc(C(F)(F)F)cc2)c(NC2CCCCCC2)n1`, the GI50 is more than 10000 nM and the TGI was more than 10 µM. As for `Cc1ccc(N2CN3OC(=O)N(c4ccccc4)[C@@]3(c3ccccc3)C2)cc1`, the TGI is more than 100 µM. With `CCc1ccccc1NC(=O)C1=C(C)NC(C)=C(C(=O)Nc2c(CC)cccc2CC)C1c1ccc2c(c1)OCO2` (configuration not stated), the TGI was 43.3 µM.

Compound `COC(=O)Cc1c(-c2[nH]c3ccccc3c2CC(=O)OC)[nH]c2ccccc12` gave a TGI of more than 100 µM. With `CC(C)CC(NC(=O)C(Cc1ccccc1)NC(=O)[C@H]1CC[C@H](NC(=O)C(Cc2ccc(OC(C)(C)C)cc2)NC(=O)OC(C)(C)C)C1)C(N)=O` (some centres not stated), the TGI is more than 100 µM.

For the compound `O=C(Nc1c(O)[nH]c(=S)[nH]c1=O)c1ccco1`, the TGI is more than 100 µM. As for `CCCC(=O)OCC1OC(n2cnc3c(=S)nc(N)[nH]c32)C(OC(=O)CCC)C1OC(=O)CCC` (configuration not stated), the GI50 is 11900 nM and the TGI was more than 100 µM.

Take `Cc1ccc2cc3c(cc(C)c4ccccc43)c3c2c1CC3`: the GI50 was more than 100000 nM and the TGI is more than 100 µM. For the compound `NC(=O)c1c(Br)n(C2OC(CO)C(O)C2O)c2ncnc(N)c12` (configuration not stated), the GI50 was 1890 nM and the TGI was determined as 19 µM. Consider `O=C(O)C(F)(F)C(F)(F)C(F)(F)C(F)(F)C(F)(F)C(F)(F)C(F)(F)C(F)(F)F`, for which the TGI is more than 100 µM.

Turning to `C=Cc1c(C)c(O)cc2c1-c1ccc(O)c(C)c1CC2`, the TGI came out at 30 µM. In turn, `CCn1c(=O)nc2n(-c3ccccc3)c3ccccc3nc-2c1=O` showed a TGI of more than 100 µM. Same read-out and setting: as for `CN(C)CCCNC(=O)c1cccc2ccccc12`, the figure is more than 100 µM; as for `O=C(Cc1ccccc1CCO)NCCc1ccccc1`, more than 100 µM. Regarding `COc1ccc(C(=O)c2cc(OC)c(OC)c(OC)c2)cc1OC(=O)C(Cl)(Cl)Cl`, the GI50 was 84.6 nM and the TGI is more than 100 µM. In turn, `CC1(C)Cc2c(c3ccccc3c3nc4c(nc23)c2c(c3ccccc34)OC(C)(C)C2)O1` displayed a TGI of more than 100 µM. `O=C(CSc1ncnc2nc[nH]c12)c1ccccc1` gave a TGI of more than 100 µM.

`C[C@@H](CC(O)C1OC1(C)C)[C@@H]1CC[C@]2(C)C3=CCC4C(C)(C)C(O)CC[C@]4(C)C3CCC12C` (some centres not stated) showed a TGI of 86.4 µM. The compound `O=S(=O)(SCCCCSS(=O)(=O)c1ccc(Cl)cc1)c1ccc(Cl)cc1` came in with a TGI of 31.6 µM. The same measure, in the same setting: as for `CCCNC1=C(C)C(=O)C2=C(C1=O)[C@H](COC(N)=O)[C@]1(OC)[C@@H]3N[C@@H]3CN21`, the figure is 36.1 µM. For `CC1(C)CC[C@]2(C(=O)O)CC[C@]3(C)C(=CC[C@@H]4[C@@]5(C)CC[C@H](OC6OC(C(=O)O)C(O)C(O)C6O)C(C)(C)[C@@H]5CC[C@]43C)[C@@H]2C1` (some centres not stated), the TGI was determined as 26.4 µM. The same measure, in the same setting: as for `Nc1nc(N)c2nc(CNc3ccc(C(=O)NC(CCC(=O)O)C(=O)O)cc3F)cnc2n1` (configuration not stated), the figure is more than 100 µM. Consider `N#C/C(=C1C=C/C(=N/O)C(Cl)=C/1)c1ccc(Cl)cc1`, for which the GI50 was 14700 nM and the TGI came to 55.3 µM.

`CC[C@H](C)[C@H]1NC(=O)[C@@H](NC(=O)[C@@H](CC(C)C)N(C)C(=O)C2CCCN2C(=O)[C@H](C)O)[C@@H](C)OC(=O)[C@@H]2Cc3ccccc3CN2C(=O)[C@@H]2CCCN2C(=O)[C@H](CC(C)C)NC(=O)[C@@H](C)C(=O)[C@H](C(C)C)OC(=O)C[C@@H]1O` (some centres not stated) registered a TGI of 8.5 µM.

`CCOC(=O)C(C)c1nc2cc(N3CCOCC3)c(F)cc2[nH]c1=O` (configuration not stated) showed a TGI of more than 100 µM. `COc1ccc2cc1Oc1ccc(cc1)CC1c3cc(OC)c(cc3CCN1C)Oc1c(OC)c(OC)cc3c1C(C2)N(C)CC3` (configuration not stated) returned a TGI of more than 75 µM. Compound `O=C(O)/C=C\C(=O)c1ccc(Cl)cc1` displayed a TGI of more than 100 µM. The compound `O=c1[nH]ccc2c1ccn2C1CC(O)C(CO)O1` (configuration not stated) showed a TGI of more than 100 µM. Regarding `C=CC(C)c1cccc(C=O)c1O` (configuration not stated), the GI50 was more than 100000 nM and the TGI is more than 100 µM. As to `CCCCCC(/C=C/[C@@H]1[C@H]2CC(=O)O[C@H]2C[C@H]1N1CCOCC1)OC1CCCO1` (some centres not stated), the TGI was more than 100 µM. Turning to `O=P1(N(CCCl)CCCl)Oc2ccc(Cl)cc2Sc2c(ccc(Cl)c2Cl)O1` (configuration not stated), the TGI was more than 100 µM.

Take `C#C[C@@]1(O)[C@@H](CO)O[C@@H](n2cc(Br)c3c(N)ncnc32)[C@@H]1O`: the GI50 was 348 nM and the TGI came to 5.06 µM.

As to `COc1cc(-c2nn(-c3ccc(NC(=O)NCCNS(=O)(=O)c4ccc(F)cc4)cc3)cc2-c2ccncc2)ccc1Cl`, the GI50 is 843 nM and the TGI is 7.32 µM. The compound `Cn1cc/c(=N\N=c2/ccn(C)c3ccccc23)c2ccccc21` returned a TGI of 38 µM. As for `COc1cc2c(cc1O)CC[C@@H]1[C@@H]2CC[C@]2(C)[C@@H](OCCCN(C)C)CC[C@@H]12`, the GI50 was 357 nM and the TGI was determined as 1.03 µM. On to `Fc1cccc(F)c1C1SCc2nc3cc4ccccc4cc3n21` (configuration not stated), for which the TGI is more than 100 µM. As for `N#CC1=C(N)OC2=C(CCCc3ccccc32)C1c1ccc([N+](=O)[O-])cc1` (configuration not stated), the TGI turned out to be 57.5 µM. Regarding `O=C1c2c(c(-c3ccccc3)c(-c3ccccc3)c(-c3ccccc3)c2-c2ccccc2)C(=O)N1c1cccc(Br)c1`, the TGI was more than 100 µM.

As for `CCOC(=O)CO/N=C\C1=CC(=O)C2CC1C2(C)C` (configuration not stated), the TGI is more than 100 µM. As for `OC1c2[nH]c3ccccc3c2CCN2CCCCC12` (configuration not stated), the TGI was more than 100 µM. On the same count and under the same terms, as for `COC(=O)C(CCCCCCCC(C(=O)OC)c1nc2n(c1O)C(=N)N=N2)c1nc2n(c1O)C(=N)N=N2` (configuration not stated), the figure is more than 100 µM.
